This is one part of the list.
biological target: T1, OsWOX13 (Oryza sativa, UniProt Q5QMM3 1-267); experiment: protein-binding microarray (RPBM); PBS, 2% BSA, 51.3 ng/ul salmon testes DNA, 50 uM zinc acetate, 200 nM TF, 25 C, 1 h; high values mean tight binding; conditions: protein: recombinant; tags: N-terminal polyhistidine and DsRed monomer fusion (pET32a); label: CyDye5-dUTP incorporated in the synthesized complementary strand; 3' TTTTT single-stranded linker to array surface; dsDNA, one strand shown
T1 sequence: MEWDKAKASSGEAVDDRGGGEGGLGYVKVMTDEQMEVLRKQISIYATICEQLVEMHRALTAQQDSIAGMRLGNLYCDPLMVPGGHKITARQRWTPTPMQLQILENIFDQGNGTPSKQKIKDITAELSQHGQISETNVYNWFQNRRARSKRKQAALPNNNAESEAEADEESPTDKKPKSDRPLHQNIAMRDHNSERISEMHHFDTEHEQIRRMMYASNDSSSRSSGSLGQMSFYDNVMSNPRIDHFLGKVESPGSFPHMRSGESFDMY
Method in brief: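 Transcription factors were each fused at the N-terminus to a polyhistidine tag plus DsRed and expressed in E. coli BL21-CodonPlus before Ni–NTA purification. Binding to a double-stranded custom Agilent array was carried out with 200 nM protein at 25 °C for 1 h in PBS, 2% BSA, salmon testes DNA and 50 µM zinc acetate. The binding signal is per-feature fluorescence intensity, in arbitrary units, on an Axon 4000B scanner.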

**Q.** “GACAGCCAATTTAACTATTTAAGTTTAACTAGCTTGTACTCGGAGTCACCTAGTGCAG” was tested. Which binding signal did it give?
**A.** 5120 fluorescence intensity (a.u.)

**Q.** “GGTTAACTGAACTATATTTTCTTCGCAAAAGTAATAGAAACGGAGTCACCTAGTGCAG” was tested. Which binding signal did it give?
**A.** 3330 fluorescence intensity (a.u.)

**Q.** How did the binding signal turn out when “CACAGGAGGTCTACTAATTGAACCGTGTATGATAATCGATCGGAGTCACCTAGTGCAG” was run?
**A.** 3170 fluorescence intensity (a.u.)

**Q.** “TAACAAATTTATTCGTTTAGTGATGATGTTTGTTCTTTCTCGGAGTCACCTAGTGCAG” was tested. Which binding signal did it give?
**A.** 4840 fluorescence intensity (a.u.)

**Q.** How did the binding signal turn out when “CTTGTTTGATTTGACCCTATTATGTCATATAGTGTATATACGGAGTCACCTAGTGCAG” was run?
**A.** 14300 fluorescence intensity (a.u.)

**Q.** Which binding signal does the source give for “AAGAATAATAATTATATGTAACATGAATAAGAATAGTGATCGGAGTCACCTAGTGCAG” here?
**A.** 12200 fluorescence intensity (a.u.)

**Q.** Which binding signal does the source give for “GCTGAGCTGATTGCTTGATTCCTCGCTCGTTCAATCTACTCGGAGTCACCTAGTGCAG” here?
**A.** 20400 fluorescence intensity (a.u.)

**Q.** With “TAATGATTAAAGTATTTATGTTTGGGTCGTCAACCCCGCGCGGAGTCACCTAGTGCAG” as the sequence, how does the binding signal read?
**A.** 17000 fluorescence intensity (a.u.)

**Q.** With “CGTATTAATCATTTAATCGTATGTCATAATTTCTGCAGAACGGAGTCACCTAGTGCAG” as the sequence, how does the binding signal read?
**A.** 15800 fluorescence intensity (a.u.)

**Q.** “ACTAGTTAATCACGATTGATGGAAGCGGTTGATTGAATGACGGAGTCACCTAGTGCAG” was tested. Which binding signal did it give?
**A.** 51400 fluorescence intensity (a.u.)

**Q.** With “GGTGATGGATCCCCACAGTGACAGCAGATCTAGTCGAGAGCGGAGTCACCTAGTGCAG” as the sequence, how does the binding signal read?
**A.** 3230 fluorescence intensity (a.u.)

**Q.** “TTAAGTCAATCATTAACAGTGCAACATGAATCTACATGATCGGAGTCACCTAGTGCAG” was tested. Which binding signal did it give?
**A.** 22600 fluorescence intensity (a.u.)

**Q.** How did the binding signal turn out when “TATTAAATTGCATGTGTCGATTAGTTTAATCTAAACACTTCGGAGTCACCTAGTGCAG” was run?
**A.** 18100 fluorescence intensity (a.u.)

**Q.** Which binding signal does the source give for “AAGATTAGACTAATTCAACTAATTCTTTTCATCGATTCGCCGGAGTCACCTAGTGCAG” here?
**A.** 17000 fluorescence intensity (a.u.)

**Q.** Which binding signal does the source give for “TCTCTCATCAATTTAATGGATATTATATTTTAATGCGTCCCGGAGTCACCTAGTGCAG” here?
**A.** 11000 fluorescence intensity (a.u.)

**Q.** With “AATCCTAAATCAATCACCATAAGGTAAATTGACGTAGGAACGGAGTCACCTAGTGCAG” as the sequence, how does the binding signal read?
**A.** 15700 fluorescence intensity (a.u.)

**Q.** Which binding signal does the source give for “AAGACAATCTATGATTTAAGGTCTCCGCCTGGCTTTCCTTCGGAGTCACCTAGTGCAG” here?
**A.** 8720 fluorescence intensity (a.u.)

**Q.** Which binding signal does the source give for “GAGTAGGATGGGGTTTGATTTTGGGGTTCGTGGGGTCGAGCGGAGTCACCTAGTGCAG” here?
**A.** 4140 fluorescence intensity (a.u.)

**Q.** With “TAGTCGTGTCAATTTGGAAAATTGGAAAGCCGTGGGGAGACGGAGTCACCTAGTGCAG” as the sequence, how does the binding signal read?
**A.** 11400 fluorescence intensity (a.u.)

**Q.** For “GTTGACATAATTGATGGATTAGATACTAGAACTTTACAGTCGGAGTCACCTAGTGCAG”, which binding signal is on record?
**A.** 46000 fluorescence intensity (a.u.)

**Q.** “ATACTATCGTGTGATTTTGATAATTTAGTTTTATATAAGTCGGAGTCACCTAGTGCAG” was tested. Which binding signal did it give?
**A.** 3900 fluorescence intensity (a.u.)

**Q.** With “CTTGACGAAATTGAAGTACACTCCTTGTCGTTTATCGTGTCGGAGTCACCTAGTGCAG” as the sequence, how does the binding signal read?
**A.** 35700 fluorescence intensity (a.u.)

**Q.** Which binding signal does the source give for “ATAAATTTATACAGCAATGCATGCATGTTTAACCAACACACGGAGTCACCTAGTGCAG” here?
**A.** 14500 fluorescence intensity (a.u.)

**Q.** For “CATATTGATGCTAATGAACCACATTCATATTGATGATATCCGGAGTCACCTAGTGCAG”, which binding signal is on record?
**A.** 4090 fluorescence intensity (a.u.)

**Q.** For “ATTATTAAATGAGATAAATCATCAAATGTATTGTTTAAATCGGAGTCACCTAGTGCAG”, which binding signal is on record?
**A.** 3660 fluorescence intensity (a.u.)

**Q.** Which binding signal does the source give for “GAAAATCACTCTCATCATCAAATCAAGGGAACCGTATGAACGGAGTCACCTAGTGCAG” here?
**A.** 10200 fluorescence intensity (a.u.)

**Q.** How did the binding signal turn out when “GATGATTTGATCCAAGCTGAGATCGAGCTCTACCACCACTCGGAGTCACCTAGTGCAG” was run?
**A.** 31500 fluorescence intensity (a.u.)

**Q.** For “CTTGAATAATTGAGTTTCACTTTGGAATGTATTTCCACCTCGGAGTCACCTAGTGCAG”, which binding signal is on record?
**A.** 18300 fluorescence intensity (a.u.)

**Q.** With “CAAATGATGGAGGTTTCAAATTATACTGTACTTCAGCCATCGGAGTCACCTAGTGCAG” as the sequence, how does the binding signal read?
**A.** 7400 fluorescence intensity (a.u.)

**Q.** How did the binding signal turn out when “TATAAATTTAGACAGACAGATGAATTAACAAATCAATTTTCGGAGTCACCTAGTGCAG” was run?
**A.** 26100 fluorescence intensity (a.u.)

**Q.** How did the binding signal turn out when “GAGATTGAATGCTGATCCGATCACCAGGAACAAAGTTGATCGGAGTCACCTAGTGCAG” was run?
**A.** 22500 fluorescence intensity (a.u.)

**Q.** With “TTCTCATCACGTTTAATTATAGCATGATGGTTCATATTTCCGGAGTCACCTAGTGCAG” as the sequence, how does the binding signal read?
**A.** 8970 fluorescence intensity (a.u.)

**Q.** Which binding signal does the source give for “GATGACGAATTTTAATTTTAAAGGAGTTGTCTGATCTATACGGAGTCACCTAGTGCAG” here?
**A.** 7180 fluorescence intensity (a.u.)

**Q.** With “ATTTATTAATTAATAATTCCAGCTCCGGTTTCGTCTCTGCCGGAGTCACCTAGTGCAG” as the sequence, how does the binding signal read?
**A.** 42400 fluorescence intensity (a.u.)

**Q.** How did the binding signal turn out when “TGCAAATTTTGAATTTGCTGTTCATTGCGGTTAAGTAATTCGGAGTCACCTAGTGCAG” was run?
**A.** 3450 fluorescence intensity (a.u.)

**Q.** With “TTGTAGCTGTCACACAAATTAGATAGCAAGGAAGCGCACACGGAGTCACCTAGTGCAG” as the sequence, how does the binding signal read?
**A.** 5120 fluorescence intensity (a.u.)

**Q.** How did the binding signal turn out when “CGTTTATTAATTGTTATAACGAGTGTTTTATTCCAAGATTCGGAGTCACCTAGTGCAG” was run?
**A.** 11700 fluorescence intensity (a.u.)

**Q.** “AAAATTGACGGTCGGATTTGGTACTTGAGGAACGTCAACACGGAGTCACCTAGTGCAG” was tested. Which binding signal did it give?
**A.** 23000 fluorescence intensity (a.u.)

**Q.** With “TGATGACTTAACAGTTGATTCAGTCATAGCATTTGGACTTCGGAGTCACCTAGTGCAG” as the sequence, how does the binding signal read?
**A.** 3710 fluorescence intensity (a.u.)

**Q.** “ATGCTAAACAAATGTGTTTTGATTTGGACTTGTGTAGTTGCGGAGTCACCTAGTGCAG” was tested. Which binding signal did it give?
**A.** 3660 fluorescence intensity (a.u.)

**Q.** How did the binding signal turn out when “CCAATTTATATGAGATTGATATGGAAAACCGTAGAGTACGCGGAGTCACCTAGTGCAG” was run?
**A.** 22200 fluorescence intensity (a.u.)

**Q.** Which binding signal does the source give for “CTGACAGGTCTGATATAGTAATAATGGCGTAGATGGATAACGGAGTCACCTAGTGCAG” here?
**A.** 7450 fluorescence intensity (a.u.)

— paper PMC7819943, “Rice protein-binding microarrays: a tool to detect cis-acting elements near promoter regions in rice”
